The other results are listed elsewhere or left out. Sequences were assembled here from the parent chain. Values near 0.05 are background.
B1: TEV protease; numbered along this chain (parent)
chain: MGESLFKGPRDYNPISSSICHLTNESDGHTTSLYGIGFGPFIITNKHLFRRNNGTLVVQSLHGVFKVKDTTTLQQHLVDGRDMIIIRMPKDFPPFPQKLKFREPQREERICLVTTNFQTKSMSSMVSDTSCTFPSGDGIFWKHWIQTKDGQCGSPLVSTRDGFIVGIHSASNFTNTNNYFTSVPKNFMELLTNQEAQQWVSGWRLNADSVLWGGHKVFMVKPEEPFQPVKEATQL

Variants of: B1
Test: raw area under fraction-flipped curve 0-4 h after induction (AUC4h, not background-subtracted), DNA-recorder readout of cleavage of the substrate (dimensionless); higher = more cleavage of the substrate by the protease variant
Settings: temperature: 34 °C; time window: 0-4 h after rhamnose induction
Method: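 In vivo DNA recorder in E. coli TOP10(DE3) ΔrhaA at 34 °C. Each TEVp single-site mutant (parent TEVp 0) is paired with a single-site variant of the 7-mer TEVs (canonical ENLYFQ|S). The substrate sits between flexible linkers in a Bxb1-sfGFP-TEVs-SsrA fusion, so cleavage stabilises Bxb1 and speeds flipping of a recombination array, read by NGS. The value is the raw area under the fraction-flipped curve over 0-4 h after rhamnose induction (AUC4h), with ≥20 reads per time point. It is not background-subtracted; inactive controls average about 0.047.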
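Also: Bxb1 expression induced with 0.2% (w/v) L-rhamnose at OD600 near 0.5, cultures sampled hourly, flipped fraction per protease–substrate barcode pair counted by paired-end Illumina sequencing.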

With R81N the “area with substrate ENLAFQS” value was 0.0593, the “area with substrate ENLCFQS” value was 0.0615 and the “area with substrate ENLFFQS” value was 0.0639. The “area with substrate ENLGFQS” value was 0.106, the “area with substrate ENLHFQS” value was 0.0617 and the “area with substrate ENLKFQS” value was 0.0741. For the same variant, the “area with substrate ENLRFQS” value was 0.062, the “area with substrate ENLSFQS” value was 0.0506 and the “area with substrate ENLVFQS” value was 0.0657.

For G39A, the “area with substrate ENLAFQS” value was 0.0348, the “area with substrate ENLCFQS” value was 0.079 and the “area with substrate ENLDFQS” value was 0.0447. The “area with substrate ENLEFQS” value was 0.0479, the “area with substrate ENLFFQS” value was 0.0469 and the “area with substrate ENLGFQS” value was 0.0377. The “area with substrate ENLHFQS” value was 0.0354, the “area with substrate ENLNFQS” value was 0.0678 and the “area with substrate ENLPFQS” value was 0.0243. For the same variant, the “area with substrate ENLRFQS” value was 0.0383, the “area with substrate ENLSFQS” value was 0.0425 and the “area with substrate ENLVFQS” value was 0.0453.

With K120W the “area with substrate ENLAFQS” value was 0.0616, the “area with substrate ENLCFQS” value was 0.0627 and the “area with substrate ENLDFQS” value was 0.0465. The “area with substrate ENLEFQS” value was 0.0642, the “area with substrate ENLFFQS” value was 0.078 and the “area with substrate ENLHFQS” value was 0.0674. The “area with substrate ENLIFQS” value was 0.0623, the “area with substrate ENLKFQS” value was 0.0598 and the “area with substrate ENLLFQS” value was 0.0686. For the same variant, the “area with substrate ENLMFQS” value was 0.0718, the “area with substrate ENLNFQS” value was 0.103 and the “area with substrate ENLSFQS” value was 0.0646. For the same variant, the “area with substrate ENLVFQS” value was 0.123 and the “area with substrate ENLWFQS” value was 0.0657.

In the case of P104M, the “area with substrate ENLAFQS” value is reported as 0.0487, the “area with substrate ENLCFQS” value is reported as 0.0513 and the “area with substrate ENLDFQS” value is reported as 0.0547. For the same variant, the “area with substrate ENLEFQS” value was 0.0464, the “area with substrate ENLFFQS” value was 0.0674 and the “area with substrate ENLGFQS” value was 0.0595. For the same variant, the “area with substrate ENLHFQS” value was 0.0563, the “area with substrate ENLIFQS” value was 0.0616 and the “area with substrate ENLLFQS” value was 0.0446. The “area with substrate ENLMFQS” value was 0.0501, the “area with substrate ENLNFQS” value was 0.0603 and the “area with substrate ENLPFQS” value was 0.0438. The “area with substrate ENLQFQS” value was 0.0463, the “area with substrate ENLRFQS” value was 0.0414 and the “area with substrate ENLSFQS” value was 0.0486. For the same variant, the “area with substrate ENLVFQS” value was 0.054.

For T176I, the “area with substrate ENLAFQS” value was 0.0625, the “area with substrate ENLCFQS” value was 0.0661 and the “area with substrate ENLDFQS” value was 0.0632. For the same variant, the “area with substrate ENLEFQS” value was 0.066, the “area with substrate ENLFFQS” value was 0.0781 and the “area with substrate ENLGFQS” value was 0.0715. The “area with substrate ENLIFQS” value was 0.0604, the “area with substrate ENLKFQS” value was 0.0694 and the “area with substrate ENLLFQS” value was 0.0615. For the same variant, the “area with substrate ENLNFQS” value was 0.0658, the “area with substrate ENLPFQS” value was 0.0662 and the “area with substrate ENLQFQS” value was 0.0503. For the same variant, the “area with substrate ENLSFQS” value was 0.0709 and the “area with substrate ENLVFQS” value was 0.0405.

In the case of C152V, the “area with substrate ENLAFQS” value is reported as 0.0515, the “area with substrate ENLCFQS” value is reported as 0.0664 and the “area with substrate ENLDFQS” value is reported as 0.0669. The “area with substrate ENLEFQS” value was 0.0728, the “area with substrate ENLFFQS” value was 0.0616 and the “area with substrate ENLGFQS” value was 0.0704. For the same variant, the “area with substrate ENLHFQS” value was 0.0709, the “area with substrate ENLIFQS” value was 0.0617 and the “area with substrate ENLKFQS” value was 0.0542. For the same variant, the “area with substrate ENLLFQS” value was 0.032, the “area with substrate ENLNFQS” value was 0.0716 and the “area with substrate ENLRFQS” value was 0.0559. The “area with substrate ENLSFQS” value was 0.0571, the “area with substrate ENLTFQS” value was 0.0588 and the “area with substrate ENLVFQS” value was 0.0597. The “area with substrate ENLWFQS” value was 0.0611.

— the supplement of paper PMC12217912
